Test results taken from patent US20160031967A1 (Affibody, published 2016).
Changes are numbered by the printed parent chain.

B1: Z13761-ABD fusion (designed binder)
chain: AQHDEALEVDAKYAKELEEAAHEIRWLPNLTFDQRVAFIHKLRDDPSQSSELLSEAKKLNDSQAPKVDYVLAEAKVLANRELDKYGVSDYYKNLINNAKTVEGVKALIDEILAALPYVPG
notes: domain: GA3; periplasmic Z-ABD fusion
B2: Z13573-ABD fusion (designed binder)
chain: B1 chain with L17S, E18K, E19D
notes: as for B1
B3: Z13574-ABD fusion (designed binder)
chain: B1 chain with L17K, E18K
notes: as for B1
B4: Z13577-ABD fusion (designed binder)
chain: B1 chain with L17W, E18H, E19Q
notes: as for B1
B5: Z13579-ABD fusion (designed binder)
chain: B1 chain with L17I, E18S, E19A, A21S
notes: as for B1
B6: Z13585-ABD fusion (designed binder)
chain: B1 chain with L17Y, E18L, E19D
notes: as for B1
B7: Z13587-ABD fusion (designed binder)
chain: B1 chain with L17H, E18V, E19D
notes: as for B1
B8: Z13592-ABD fusion (designed binder)
chain: B1 chain with L17V, E18D, E19I
notes: as for B1
B9: Z13594-ABD fusion (designed binder)
chain: B1 chain with L17I, E18D, A21K, R43D
notes: as for B1
B10: Z13597-ABD fusion (designed binder)
chain: B1 chain with E18Q, E19S, R43K
notes: as for B1
B11: Z13598-ABD fusion (designed binder)
chain: B1 chain with E19K
notes: as for B1
B12: Z13600-ABD fusion (designed binder)
chain: B1 chain with L17A, E18H
notes: as for B1
B13: Z13605-ABD fusion (designed binder)
chain: B1 chain with L17I, E19S, A21K, R43N
notes: as for B1
B14: Z13609-ABD fusion (designed binder)
chain: B1 chain with L17W, E18K, E19V
notes: as for B1
B15: Z13611-ABD fusion (designed binder)
chain: B1 chain with L17W, E18K, E19A
notes: as for B1
B16: Z13613-ABD fusion (designed binder)
chain: B1 chain with E19A, A21R, R43N
notes: as for B1
B17: Z13616-ABD fusion (designed binder)
chain: B1 chain with L17W, E18Q, E19Q
notes: as for B1
B18: Z13617-ABD fusion (designed binder)
chain: B1 chain with L17A, E18D, E19Q, A21G, H40R
notes: as for B1
B19: Z13621-ABD fusion (designed binder)
chain: B1 chain with L17A, E18D, E19A, A21G
notes: as for B1
B20: Z13624-ABD fusion (designed binder)
chain: B1 chain with L17S, E18K, E19Q
notes: as for B1
B21: Z13625-ABD fusion (designed binder)
chain: B1 chain with L17V, E18S, E19D
notes: as for B1
B22: Z13626-ABD fusion (designed binder)
chain: B1 chain with L17A, E18D, E19S, A21S
notes: as for B1
B23: Z13627-ABD fusion (designed binder)
chain: B1 chain with E18M
notes: as for B1
B24: Z13628-ABD fusion (designed binder)
chain: B1 chain with E18N, E19T, R43K
notes: as for B1
B25: Z13634-ABD fusion (designed binder)
chain: B1 chain with L17W, E18Y, E19N
notes: as for B1
B26: Z13637-ABD fusion (designed binder)
chain: B1 chain with L17V, E19V, A21K, R43D
notes: as for B1
B27: Z13638-ABD fusion (designed binder)
chain: B1 chain with L17F, E18N, E19F
notes: as for B1
B28: Z13639-ABD fusion (designed binder)
chain: B1 chain with L17H, E18D, E19S
notes: as for B1
B29: Z13640-ABD fusion (designed binder)
chain: B1 chain with L17W, E18M, E19D
notes: as for B1
B30: Z13641-ABD fusion (designed binder)
chain: B1 chain with L17F, E18S, E19A, A21G
notes: as for B1
B31: Z13644-ABD fusion (designed binder)
chain: B1 chain with E18N, E19S
notes: as for B1
B32: Z13645-ABD fusion (designed binder)
chain: B1 chain with L17V, E18D, E19T
notes: as for B1
B33: Z13651-ABD fusion (designed binder)
chain: B1 chain with L17V, E18S, E19A, A21S
notes: as for B1
B34: Z13652-ABD fusion (designed binder)
chain: B1 chain with L17D, E18Q, E19D
notes: as for B1
B35: Z13654-ABD fusion (designed binder)
chain: B1 chain with E19A, A21K, R43D
notes: as for B1
B36: Z13655-ABD fusion (designed binder)
chain: B1 chain with L17S, E18K, E19R
notes: as for B1
B37: Z13656-ABD fusion (designed binder)
chain: B1 chain with L17Y, E18V, E19K, A21G, H40R
notes: as for B1
B38: Z13664-ABD fusion (designed binder)
chain: B1 chain with E18Q
notes: as for B1
B39: Z13667-ABD fusion (designed binder)
chain: B1 chain with L17Y, E18R, E19A
notes: as for B1
B40: Z13669-ABD fusion (designed binder)
chain: B1 chain with E18A, E19S, A21G
notes: as for B1
B41: Z13672-ABD fusion (designed binder)
chain: B1 chain with L17V, E18Q, E19S, A21S
notes: as for B1
B42: Z13674-ABD fusion (designed binder)
chain: B1 chain with L17I, E19D, A21G
notes: as for B1
B43: Z13675-ABD fusion (designed binder)
chain: B1 chain with L17N, E18Q, E19A
notes: as for B1
B44: Z13691-ABD fusion (designed binder)
chain: B1 chain with L17W, E18D, E19A
notes: as for B1
B45: Z13692-ABD fusion (designed binder)
chain: B1 chain with L17E, E18M, E19Q, A21G
notes: as for B1
B46: Z13694-ABD fusion (designed binder)
chain: B1 chain with E18S, E19D, R43N
notes: as for B1
B47: Z13695-ABD fusion (designed binder)
chain: B1 chain with L17I, E18D, E19A, A21K, R43D
notes: as for B1
B48: Z13697-ABD fusion (designed binder)
chain: B1 chain with L17A, E19R, A21G, H40R
notes: as for B1
B49: Z13706-ABD fusion (designed binder)
chain: B1 chain with L17E, E18D, E19S, R43K
notes: as for B1
B50: Z13708-ABD fusion (designed binder)
chain: B1 chain with L17Q, E18K, E19A, A21G
notes: as for B1
B51: Z13719-ABD fusion (designed binder)
chain: B1 chain with L17A, E18K, E19S
notes: as for B1

Target: T1, human FcRn (Biorbyt, cat. no. orb84388) (human, UniProt P55899 24-297; P61769 21-119, limits assumed)
T1 construct: Bought protein; Biotinylated in AlphaLISA and ELISA; also called biotinylated human FcRn
Experiment: ELISA titration of biotinylated human FcRn, pH 6.0
Experimental: (§1) ELISA KD analysis of FcRn binding Z variants: A selection of FcRn binders was subjected to an analysis of the response against a dilution series of biotinylated human FcRn using ELISA at both pH 6.0 and pH 7.4 as described above. […] As a background control, all Z variants were also assayed with no target protein added. […] Data were analyzed using GraphPad Prism 5 and non-linear regression and KD values (the half maximal effective concentration) were calculated.
(§2) Periplasm samples were incubated with a serial dilution of biotinylated human FcRn.

Kd | Binder
1.9 nM | B1
1.1 nM | B2
1.2 nM | B3
0.99 nM | B4
1.2 nM | B5
1.2 nM | B6
1.4 nM | B7
0.95 nM | B8
1.3 nM | B9
1.4 nM | B10
1.1 nM | B11
1.4 nM | B12
1.3 nM | B13
1.3 nM | B14
1.3 nM | B15
1.2 nM | B16
0.96 nM | B17
1.2 nM | B18
0.86 nM | B19
1.3 nM | B20
1.3 nM | B21
1.2 nM | B22
1.2 nM | B23
1.3 nM | B24
1.1 nM | B25
1.3 nM | B26

Kd | Binder
1.2 nM | B27
1.3 nM | B28
1.1 nM | B29
1.1 nM | B30
1.3 nM | B31
1.2 nM | B32
1.2 nM | B33
1.4 nM | B34
0.95 nM | B35
1.1 nM | B36
1.1 nM | B37
2.4 nM | B38
1.2 nM | B39
0.92 nM | B40
2.5 nM | B41
0.92 nM | B42
0.96 nM | B43
1.8 nM | B44
1.3 nM | B45
0.98 nM | B46
1.8 nM | B47
1.2 nM | B48
2 nM | B49
1.9 nM | B50
2.6 nM | B51

Target: T1, human FcRn (Biorbyt, cat. no. orb84388)
Experiment: ELISA titration of biotinylated human FcRn, pH 7.4
Experimental: as §1, §2

Kd | Binder
3.7 nM | B1
3.8 nM | B2
5 nM | B3
1.4 nM | B4
5.3 nM | B5
1.7 nM | B6
6.9 nM | B7
1.8 nM | B8
6.3 nM | B9
6 nM | B10
1.7 nM | B11
4 nM | B12
3.8 nM | B13
2.7 nM | B14
2.5 nM | B15
4.3 nM | B16
1.7 nM | B17
1.9 nM | B18
1.4 nM | B19
3.4 nM | B20
2.8 nM | B21
2.7 nM | B22
2.9 nM | B23
5.5 nM | B24
2.3 nM | B25
4.8 nM | B26

Kd | Binder
2.9 nM | B27
3 nM | B28
1.9 nM | B29
1.8 nM | B30
2.8 nM | B31
2.5 nM | B32
2.7 nM | B33
2.9 nM | B34
2.9 nM | B35
2.4 nM | B36
3.7 nM | B37
4.2 nM | B38
2.3 nM | B39
1.7 nM | B40
5.6 nM | B41
1.3 nM | B42
2.2 nM | B43
2.7 nM | B44
3.7 nM | B45
3.6 nM | B46
5.3 nM | B47
2.4 nM | B48
6.4 nM | B49
4.4 nM | B50
7.3 nM | B51
